Measurements reported in the supplement of paper PMC4166925.
± gives the standard deviation of the averaged measurements. Whole data set: some 33,000 sequences, median “E-score (dimensionless, -0.5 to 0.5)” near -0.049, cut for the highest 2% near 0.37. Some of the results follow.

What follows are sequences tested on T1, PmTbr T-box DNA-binding domain (GST fusion) (assay: PBM E-score of 8-mer (E-score (dimensionless, -0.5 to 0.5)); Tbr is Tbrain of the sea star Patiria miniata (Pm) or the sea urchin Strongylocentrotus purpuratus (Sp); higher = stronger binding preference; most listed sequences are background and not binding sites). Details: the construct has about 5 more residues each side.
T1 sequence: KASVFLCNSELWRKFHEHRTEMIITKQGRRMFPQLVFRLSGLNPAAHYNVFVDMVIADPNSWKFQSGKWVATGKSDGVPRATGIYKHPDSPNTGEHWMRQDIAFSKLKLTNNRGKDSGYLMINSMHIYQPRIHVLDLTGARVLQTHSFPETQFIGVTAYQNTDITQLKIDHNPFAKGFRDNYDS
Method in brief: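 Using the Universal PBM Analysis Suite, every ungapped 8-mer received an enrichment E-score averaged over duplicate arrays. Probe intensities came from double-stranded Universal Agilent oligonucleotide arrays incubated with 200 nM GST-fused Tbr T-box DNA-binding domain in PBS (pH 7.5). That protein was expressed in BL21 E. coli at 20 °C and purified by glutathione affinity chromatography.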

Sequence	PBM E-score of 8-mer
AAATCGGT	-0.0944 ± 0.035
ACTCGAGC	-0.3 ± 0.071
AACGTTTC	-0.177 ± 0.011
GGACGACA	0.0788 ± 0.045
CGCAGAAA	-0.0539 ± 0.012
GGTAGTGA	0.193 ± 0.015
CAGTAAAG	-0.0411 ± 0.0096
ATTGGCCC	-0.207 ± 0.014
CCGCGGAC	-0.0508 ± 0.069
AACTTAAA	-0.0777 ± 0.021
ATACTACA	-0.0455 ± 0.042
CACCAGCG	0.236 ± 0.0024
AATGAGAG	-0.317 ± 0.025
AACACTGT	0.275 ± 0.0073
CTTGCCCA	-0.255 ± 0.011
GACGGAAA	-0.0646 ± 0.034
ACACGGGG	-0.0262 ± 0.012
AGTCAGTG	0.114 ± 0.038
AGGAAACC	-0.125 ± 0.031
AAATTTCG	-0.127 ± 0.029
AGCAGCCT	-0.0537 ± 0.0035
GGGTAAAA	-0.317 ± 0.11
CCGTAAAA	-0.105 ± 0.11
GCATTCGA	-0.0584 ± 0.02
CAGCAAAA	-0.169 ± 0.048

Sequence	PBM E-score of 8-mer
CCCCCGCG	-0.14 ± 0.16
TCGTCTCA	0.0452 ± 0.0029
CTCTTACC	-0.225 ± 0.025
CACCAACG	0.2 ± 0.036
AAAGCTAC	0.0105 ± 0.049
CTCCTCTA	0.0746 ± 0.06
CTTAAAAC	-0.147 ± 0.058
CATTAAAG	-0.132 ± 0.047
CGCCGGCG	0.197 ± 0.0099
CGCTAGAC	0.0745 ± 0.041
ACAACACC	0.435 ± 0.023
AATCGGGT	-0.164 ± 0.034
CAGTCGTA	-0.298 ± 0.004
GTCTCGCA	0.262 ± 0.021
GAAGTACC	-0.379 ± 0.075
GGCCCCCC	-0.276 ± 0.0062
GAAATAGA	-0.125 ± 0.036
TATAGAAA	-0.229 ± 0.091
AAAGTACC	-0.19 ± 0.064
AGACCGTC	-0.153 ± 0.041
CCTCCGCG	0.0924 ± 0.03
ACATAGGC	-0.0488 ± 0.043
CCGATGTA	-0.1593 ± 0.00022
CTTCTACC	-0.154 ± 0.069
ATAGCCAC	-0.00905 ± 0.088

Sequence	PBM E-score of 8-mer
CTGCGGGC	-0.0237 ± 0.023
CTGCGGCC	-0.291 ± 0.039
GTTCGCAA	0.317 ± 0.019
AATATCAG	0.0529 ± 0.037
ACTATAGT	0.133 ± 0.026
ATCGAAAA	-0.034 ± 0.047
GCGTCACC	0.34557 ± 9.2e-05
CAGAAACG	-0.00987 ± 0.03
CTGAAATA	-0.00809 ± 0.053
AACCTTCC	-0.196 ± 0.038
TAATTACA	-0.0708 ± 0.048
AAAGTTTA	-0.12 ± 0.099
GATGAAAC	-0.0431 ± 0.065
CGGGCGCA	-0.0013 ± 0.07
GGTTTACA	0.168 ± 0.011
AAGGCCTG	-0.262 ± 0.0041
AGCGGGGC	-0.0481 ± 0.032
ACCATACG	-0.148 ± 0.05
AGCGAATG	-0.17 ± 0.021
ATTAGCTG	-0.041 ± 0.028
AAACATGC	-0.053 ± 0.048
AGTAACGC	0.239 ± 0.0096
CCATAAGA	-0.177 ± 0.0089
CTCATGAG	-0.111 ± 0.035
GAACTAGC	0.0984 ± 0.097

Sequence	PBM E-score of 8-mer
ATCCAAAA	-0.233 ± 0.056
GCTTCAGA	-0.127 ± 0.095
AATTGAAT	-0.0845 ± 0.071
CCACCACC	0.107 ± 0.044
ATCCGCGG	-0.0965 ± 0.013
CTACCACC	0.268 ± 0.0074
GTGACCCA	-0.0434 ± 0.014
CGTGCACG	-0.126 ± 0.035
GATGTTTA	-0.114 ± 0.014
ATAATAGA	-0.208 ± 0.038
CGACCACC	-0.16 ± 0.021
ATACACGA	-0.138 ± 0.038
AGACAGGC	-0.103 ± 0.03
AAGGTCCT	-0.0737 ± 0.044
AATCGAGT	0.0051 ± 0.016
CATACATA	-0.387 ± 0.045
CGATACCC	0.00442 ± 0.071
AATAACGA	0.131 ± 0.056
AGTGTTCG	0.21 ± 0.037
TCATAACA	0.1776 ± 0.0013
CCTTACGA	-0.143 ± 0.026
ATCTCTAA	-0.131 ± 0.051
TAAAATTA	-0.194 ± 0.065
AGAACCCG	0.111 ± 0.011
ATTTATCC	-0.14 ± 0.0033

Sequence	PBM E-score of 8-mer
CACATAGA	0.0565 ± 0.011
CACTCTCA	0.259 ± 0.044
GAAATTAA	-0.113 ± 0.044
ACAGATCA	0.119 ± 0.044
GGCGTGGA	0.0458 ± 0.046
CTCCGTTC	0.169 ± 0.076
AATCTAGC	0.123 ± 0.022
GCATCAGC	-0.11 ± 0.067
TAGCATCA	0.102 ± 0.046
TCCCAAAA	-0.287 ± 0.025
CACAGACC	-0.114 ± 0.099
CAAGCAGG	-0.3147 ± 0.0026
AATCTGAA	-0.329 ± 0.043
ACGGCCAA	-0.116 ± 0.11
AGCAACTC	0.00949 ± 0.024
CGTCTCGC	0.257 ± 0.005
ATCAGACC	0.018 ± 0.054
GATGTAGC	-0.2 ± 0.034
GGAAGTCC	-0.292 ± 0.066
AATGAGCT	-0.0566 ± 0.018
ATCGCAAC	0.264 ± 0.044
AATATGCA	-0.0525 ± 0.028
ACCTCTTA	0.0447 ± 0.086
AAAGGCTC	-0.232 ± 0.044
TCTCACAA	0.325 ± 0.0084

Sequence	PBM E-score of 8-mer
CTGATTCA	-0.0989 ± 0.028
GACTATCA	0.147 ± 0.0049
CGTCGATA	-0.0182 ± 0.033
ATCAAAAC	-0.00902 ± 0.088
CAGTTGGA	-0.0465 ± 0.014
GAAGAGTC	-0.306 ± 0.084
CCCTGATA	-0.24 ± 0.06
ACGGATGG	-0.025 ± 0.0085
ATGTTAAA	-0.165 ± 0.078
CATTGCCC	-0.223 ± 0.056
AGTAATCC	-0.239 ± 0.016
AGGGCGAG	-0.0619 ± 0.046
ACGAGGGC	-0.184 ± 0.0034
GCCTCATA	-0.0905 ± 0.06
ACTGGTCG	-0.222 ± 0.13
GACAGCAA	0.133 ± 0.07
CGGTAAAG	-0.102 ± 0.037
ACTCAAGC	-0.197 ± 0.065
GATCGCAC	0.42 ± 0.018
CTGGACCC	-0.302 ± 0.037
ACGATCTA	0.0459 ± 0.022
AGCGATTC	-0.182 ± 0.022
ATTTTATC	0.107 ± 0.12
AGAGGCCC	-0.223 ± 0.056
GCCAACCC	-0.13 ± 0.038

Sequence	PBM E-score of 8-mer
GAGGTTAA	-0.0997 ± 0.046
ACGCTACC	0.0696 ± 0.015
AAATACGA	-0.164 ± 0.022
ACTCCTTG	-0.0693 ± 0.038
AGTGAACG	0.0654 ± 0.058
CCATAGTA	-0.173 ± 0.019
CTGCTACC	0.0456 ± 0.037
CAATTACC	0.163 ± 0.0049
ATTCTCGA	-0.00943 ± 0.017
GCTTAGTA	-0.247 ± 0.053
ATCGTGAC	0.2 ± 0.0054
CTTCGGTC	-0.225 ± 0.053
ATCTAAAT	-0.0779 ± 0.077
CTTTCGCA	0.411 ± 0.015
AACTAAAC	-0.19 ± 0.01
CGCCGGAG	-0.0281 ± 0.046
GCCATCGA	0.0334 ± 0.092
CAGGAGGC	-0.0929 ± 0.013
CGGCAAAA	-0.0622 ± 0.057
CACGAGGC	0.0167 ± 0.00069
GGGGTCCA	-0.252 ± 0.075
ACGAGGCA	-0.249 ± 0.093
